Source: PubChem BioAssay AID652106 (National Center for Advancing Translational Sciences (NCATS), 2013)
Out of some 370,000 compounds screened, about 500 (0.14%) were called active. Inconclusive results, whose numbers are uncertain, are shown with a selection of clear calls. Calls come from the whole dose curve; as a rule, active = well fitted activation curve with a large enough effect; inconclusive = small, poorly fitted or top-dose-only effect; inactive = no such curve, though single readings can be large or run the other way. No potency is given beside an inconclusive call; the fits are too rough.
Potency is the fitted concentration of half-maximal effect; tags give direction and shape of the fitted curve.

Experiment: qHTS of alpha-syn Inhibitors; note: nearly all actives have a fitted effect of over 65% in size; for growth rescue (activation): % of control where 0% means no effect
Conditions: Yeast expressing alpha-synuclein, BacTiter-Glo, 24 h; Potency: growth rescue unless noted; growth rescue (activation): at 46.1 µM (top of the series) unless noted
Outline: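 Galactose-induced alpha-syn yeast (OD600=0.02, raffinose-pregrown) + pinned cpd, 24 hr, 30 deg C; growth by BacTiter-Glo luminescence. Growth restoration scores as activation.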
For `CC(C)(C)c1csc(NC(=O)Cc2cccs2)n1`, the Potency was “inactive”. With `CC1CC(C)CN(S(=O)(=O)c2ccc3oc(=O)ccc3c2)C1` (stereo not drawn) the Potency was “inactive”. In the case of `O=C(CSc1nc2ccccc2nc1N1CCOCC1)N1CCN(c2ccccc2)CC1`, the Potency was inconclusive [activator, partial curve]. With `Cc1ccc2cc(CN(C(=O)c3ccco3)c3cccc(C)c3C)c(=O)[nH]c2c1` the Potency was inconclusive [activator, single point]. In the case of `Cc1ccc(CNC(=O)C(Cc2ccccc2)NS(=O)(=O)c2cccs2)cc1` (stereo not drawn), the Potency was “inactive”. In the case of `O[C@@H]1[C@@H](O)C=C2CCN3Cc4cc5c(cc4[C@H]1C23)OCO5` (stereo partly drawn), the Potency was inconclusive [activator, single point]. With `COc1cccc(/C=C2\SC(=S)N(CCCC(=O)N(CCO)c3ccccc3)C2=O)c1` the Potency was inconclusive [activator, single point]. In the case of `O=C(c1ccc(Cl)c(Cl)c1)N1CCC(=O)N(C(COCc2cccc(Cl)c2)Cc2ccccc2)CC1` (stereo not drawn), the Potency was inconclusive [activator, partial curve]. With `Oc1ccc(N2CCN(C(c3ccc(Cl)cc3)c3nnnn3Cc3ccc(F)cc3)CC2)cc1` (stereo not drawn) the Potency was inconclusive [activator, single point]. With `CCOc1ccc(NC(=O)CN(C)C(=O)c2cc3c(s2)CCC3)cc1OCC` the Potency was inconclusive [activator, single point]. In the case of `COc1ccccc1NC(=O)c1nc(SCc2ccccc2F)ncc1Cl`, the Potency was “inactive”. In the case of `CC(=O)Nc1ccc(N/C=C/C(=O)c2ccco2)cc1`, the Potency was inconclusive [activator, partial curve]. In the case of `NNC(=O)c1ccc(COc2ccc3c(c2)CCC3)cc1`, the Potency was “inactive”. With `CCc1ccc(C(=O)CC2(O)C(=O)N(CCc3ccccc3)c3ccc(Br)cc32)cc1` (stereo not drawn) the Potency was inconclusive [activator, single point]. With `CN1N/C(=C\c2ccccc2)N=C2C(=O)N(C)C(=O)N=C21` the Potency was “inactive”. With `COC(=O)[C@@]12CCCCN1[C@H](c1ccc(SC3CCCCC3)c(OC)c1)[C@@H]1C(=O)N(C)C(=O)[C@@H]12` the Potency was inconclusive [activator, single point]. For `O=C(CSc1nccc(=O)[nH]1)c1cc2ccccc2o1`, the Potency was “inactive”. With `COc1cccc2cc(-c3csc(NC(=O)CCC(=O)NCCCN4CCC(C)CC4)n3)c(=O)oc12` the Potency was “inactive”. For `COCCCNc1nc2c(-c3cccc(C)c3)nnn2c2ccccc12`, the Potency was inconclusive [activator, single point]. In the case of `O=C(CCn1ccc2ccccc21)NC1CCCc2ccccc21` (stereo not drawn), the Potency was “inactive”. In the case of `O=C1c2ccccc2C(=O)C1c1cc2ccccc2cn1`, the Potency was inconclusive [activator, single point]. For `Cc1oc(-c2ccccc2Cl)nc1CSCC(=O)N1CCCC1`, the Potency was “inactive”. With `Cc1cccc(C)c1OCc1nnc(SCC(=O)Nc2nccs2)o1` the Potency was inconclusive [activator, single point]. In the case of `CCC(c1nnnn1-c1ccc2c(c1)OCCO2)N1CCN(c2ncccc2C(F)(F)F)CC1` (stereo not drawn), the Potency was inconclusive [activator, single point]. For `Nc1cc(C(F)(F)F)ccc1S(=O)(=O)Nc1cccc2c1NCCC2`, the Potency was inconclusive [activator, single point]. In the case of `CCN(Cc1nc(-c2ccc(Cl)cc2)no1)CC1CCCO1` (stereo not drawn), the Potency was inconclusive [activator, single point]. In the case of `C[C@]12C(=O)N(c3ccc(Br)cc3)C(=O)N1[C@@H]1c3ccccc3OC[C@@H]1[C@H]2c1ccccc1`, the Potency was inconclusive [activator, partial curve]. In the case of `COC(=O)CN1C(=O)[C@H]2[C@@H](c3ccc(C)o3)N3C(=O)CN(Cc4ccccn4)C(=O)[C@@]3(Cc3ccccc3)[C@H]2C1=O`, the Potency was “inactive”. For `COc1ccc(/C=C/CN2CCC(Oc3ccc(C(=O)N4CCCCC4)cc3)CC2)cc1`, the Potency was “inactive”. For `COc1cc2nc3occc3c(OC)c2cc1OC`, the Potency was inconclusive [activator, partial curve]. For `COc1ccc(C=O)cc1COc1ccc([N+](=O)[O-])c(C)c1`, the Potency was “inactive”. For `CCOC(=O)CSc1nnc(CNc2ccc(Cl)cc2)n1Cc1ccccc1`, the Potency was inconclusive [activator, single point]. With `Cc1ccc(Nc2nnns2)cc1` the Potency was “inactive”. For `Cc1ccc(NC(=O)c2ccc3ccccc3n2)nc1`, the Potency was inconclusive [activator, partial curve]. In the case of `CC(C)(C)NC(=O)CSc1nc2ccc(Nc3nc(N4CCOCC4)nc(N4CCOCC4)n3)cc2s1`, the growth rescue (activation) was inconclusive: 46.2% [activator]. In the case of `COc1ccc(CCn2c(C)nc3c(c(=O)c4ccccc4n3C)c2=O)cc1`, the Potency was inconclusive [activator, single point]. In the case of `O=C(c1ccc(CS(=O)Cc2ccc(Cl)cc2)o1)N1CCN(c2cccc(Cl)c2)CC1` (stereo not drawn), the Potency was inconclusive [activator, single point]. With `COc1ccc(OCc2ccc(C(=O)O)cc2)cc1` the Potency was “inactive”. With `O=S(=O)(c1cccc2nsnc12)N1CCN(c2ccc(F)cc2)CC1` the Potency was “inactive”. With `COc1ccc(/C=N/NC(=O)c2[nH]c3ccc(Cl)cc3c2-c2ccccc2)c(C(=O)O)c1OC` the Potency was “inactive”. For `COc1ccc(NC(=O)C(Cc2ccccc2)n2cccc2)cc1` (stereo not drawn), the Potency was “inactive”. With `O=C(CCCc1nc2ccccc2s1)NCc1ccccc1F` the Potency was “inactive”. In the case of `N#Cc1nc(COc2ccccc2)oc1N1CCCCC1`, the Potency was inconclusive [activator, single point]. For `CC(=O)C(=Cc1cccc(C#N)c1)C(=O)c1ccccc1`, the Potency was inconclusive [activator, single point]. With `COc1cccc(C(O)c2nc(-c3ccc4ccccc4c3)cs2)c1` (stereo not drawn) the Potency was inconclusive [activator, single point]. In the case of `CSC1(SC2=NCCN2)SC2(NCCN2)S1`, the Potency was “inactive”. For `Cc1cc(C)nc(SC2=CS(=O)(=O)c3ccccc32)n1`, the Potency was “inactive”. For `COc1cccc(CNC(=O)C2CCN(S(=O)(=O)c3ccc(Br)s3)CC2)c1`, the Potency was inconclusive [activator, single point].
